The source gives no read counts; variants with many changes may rest on few reads.
B1: OR4K15 (parent)
chain: GUUAACGGUCAUAGGCCAUGGAAACUAGGAGCACCAUUUCGCUGCCAGUGAAGAAAUGAACAAAGAAAAUCUGGGCCAGGCAGGCAUCAAAAGAAAUAGUCUUGCGCUCAACCAGAAAGUCUGUAAUCAUUUUAAGGGUA

Variants of: B1
Assay: self-cleavage, relative activity (ratio to wild type); higher = more cleavage; in vitro, sequencing; the parent is a self-cleaving ribozyme

Row | Variant | self-cleavage
1 | U2C U19C A47G A69G | 0.56
2 | A63G A78G U131A | 0.27
3 | A30G U37C A47G U72A A118U | 0.05
4 | A60U U103C U120C | 0.55
5 | A33G A55G U57C A95G A96G | 0.97
6 | A60G A89G C105U | 0.09
7 | U19A U37G A110C | 0.26
8 | U2C A60G A64C | 1.13
9 | A11C A92G U131C | 1.33
10 | U37C G48A A60U A92G A114G | 0.42
11 | U3A A4G U37C | 0.77
12 | A23U U57C U127C | 0.15
13 | A11G A33G A82G A110G | 0.11
14 | A18U U49C A126G | 0.33
15 | A47G A51G U102C A125G | 1.06
16 | A33G U39C A56G A60G | 0
17 | U57C A67G A69G A91G | 0.31
18 | A67C A69U A114G | 0.64
19 | A18G A24U A30G U38C U57C A94G | 0.57
20 | A23G U37G A96G U100C | 1.72
21 | U43G A59G U72C U87C A94G | 0.29
22 | U37C A54G U132C | 2.39
23 | U43C A86G A95G A96G | 1.1
24 | U2A U26C U37A A68G A114G U131C | 0.34

Row | Variant | self-cleavage
25 | A30G A64G A67G A118G A126G U132G | 0.8
26 | U12C A33G A36G A68G A111G | 0.02
27 | A78G A114U U122C | 0.02
28 | U57C A78G A91U A117U | 0.12
29 | A36G U57C A129G | 1.18
30 | A11G G31A A36U | 1.21
31 | U12A G15A A55G A78G U102C A126G | 0.35
32 | U19G U38A A94G G106A | 0
33 | A96G A114G U122G | 0.21
34 | A23G A59U U97C A129G | 1.12
35 | A13G U57C U132A | 1.06
36 | U3C A22U A90G A110G | 0.06
37 | U38C A82U A96G U122A | 0.14
38 | U57C A89G U122C | 0.61
39 | U37C A47G A64U A134G | 0.06
40 | U12C A27G A94G A116G U127C | 0.14
41 | A68G A117G A140G | 2.33
42 | C35U A68G U72C U108C A126G | 0
43 | U2G A82U G119A | 0.72
44 | U49C A94G A114G | 0.29
45 | A11G A91G A111G | 0.03
46 | A30G U43C A59G | 1.39
47 | A23G A52G A67G A118G | 1
48 | A86G U103C A111G U130C | 0

Row | Variant | self-cleavage
49 | U19C A64U U108C | 0.03
50 | A18U U38C A69G A95G A125U U130C | 1.56
51 | C6G A11G U26C U57C A69C A91U | 0.12
52 | A36U A66G A96G | 1.34
53 | U38C A78U A86U A116G | 0.34
54 | U72C G83A A94G A140G | 0.24
55 | A22U U102C U122A | 1.34
56 | A90G U97A U132C | 0.97
57 | A56G U102C A118G U130C | 2.23
58 | A22G A23G A62G A68G | 1.19
59 | A56G U70A G137A | 1.62
60 | A69G U108C A110G A111G | 0.01
61 | A56G A64U A82U | 0.14
62 | A33U U37C U103C | 0.56
63 | G8U A24C A62G U108C A116G | 0.01
64 | C10U A51G A56G | 0.53
65 | U19A U38C A117G U122C | 1.73
66 | U43C A111G U132C U139C | 0.03
67 | U57C A91G U130C U133A A140G | 0.92
68 | U57C U124A A129G | 1.23
69 | A4G A24G A95G A117U | 0
70 | U43A A82U A92G A117G | 0.19
71 | A18G U43C A90U A92U A110G | 0.41
72 | U38A U103A U108A | 0.02

Row | Variant | self-cleavage
73 | A24G A33G A64G A82G A91C A110G | 0.04
74 | A13G G80U G106A | 0.07
75 | A22U A68G A92G A129G | 1.27
76 | U37A A114G U130C | 0.18
77 | A4G A36G A59G A68G U133A | 0.58
78 | U43C A60G A91G | 1.27
79 | A30G U120C U122C | 0.52
80 | U12A A55G A126G | 1.08
81 | A18G A33G A64C A89G U122A | 0.46
82 | A86G A90G U131C | 0.82
83 | A30C A89U A116G | 0.21
84 | A11U A52C A140G | 0.46
85 | A62G A69G U120C | 1.03
86 | G8A A114G U127C | 0.19
87 | U37G A47U A114G | 0.34
88 | A30G U37C A89U A114G U122C | 0.21
89 | C6U A86U U108C U131G | 0.01
90 | U49A A56G A90G | 0.81
91 | U38C A51G U57C A86G A96G | 1.06
92 | A52G U139A A140G | 1.4
93 | U102C C113U U122C | 0.02
94 | A23G A66G U122A | 1.06
95 | A33G A64U U102C | 1.12
96 | U87A C105U A116G | 0.08

Row | Variant | self-cleavage
97 | A36G A66G A98G | 1.07
98 | A95G U108C A116G U131C | 0
99 | U3C A66G A78U U133C | 0.34
100 | A18G A59G C61U A92G A140G | 1.32
101 | G20A C40U A110G U124C | 0.06
102 | A4U C77U A96G | 1.21
103 | G115A A116G A118G G123A | 0.01
104 | U38A A52G C76U A90G | 0.38
105 | G1A A95G U120C | 0.85
106 | A51G A82U U127C | 0.03
107 | A11G U49C A95G | 0.71
108 | A18U A27G C45U A54G | 1.31
109 | A62G A90U A94G | 1.11
110 | G20A A27G U132C | 0.79
111 | A24G U39C C40U U108C | 0.08
112 | C16A A24G U120C | 1.47
113 | U49C A94G U100G A117G U122C | 1.77
114 | U37C A59G U103C | 0.55
115 | U9A A68G U97C A126G | 1.42
116 | A36C A60G G106A A111G A117U U127C | 0
117 | U2C A18G A22G A98U U120C | 0.98
118 | A59G U124C U127C | 0.77
119 | U9C A36U A52G A68G A82C U132A | 0.23
120 | U9C U12C A22G A89G A126G U127C | 0.71

Row | Variant | self-cleavage
121 | A18U C77U A126U G136A | 1.1
122 | U12G A69G A96G A114U | 0.04
123 | A56G U100C A116G U122A | 1.84
124 | A22G A54U A95C U103A U108C U122C | 0.03
125 | A18G G21U U43A A140G | 1.76
126 | C10U A18G A86G U100C | 1.92
127 | A63G A69C A82U A111G | 0.04
128 | A22G A66U A129G | 0.9
129 | U2C U43C A91G | 1.16
130 | A11G A78U A89C U124C | 0.12
131 | A11G A33G A67G A94U | 0.57
132 | A62U A117U A125G | 0.5
133 | G1A U37C A64G A92G U100C | 2.2
134 | A68G U70C U103C A117G | 0.76
135 | U43C A95U U122C | 1.54
136 | A30G A33G U38C | 0.98
137 | A33U U70G U100C A135U | 1.55
138 | A4U A96U A98G U131C | 2.14
139 | A59G U72A U103C | 0.19
140 | A30U U70C A86U A140U | 0.99
141 | A5G C42U A59G A62G A90U U124G A135G | 1.41
142 | A47U A92G U122C U139A | 0.32
143 | A52U A54G U70C | 0.41
144 | U37C U72A A118G | 0.1

Row | Variant | self-cleavage
145 | G53U U72C A111U | 0.01
146 | U39C A91G A94U | 1.03
147 | U26A A33G U37C U108A | 0.03
148 | A5G U9C C42U U87A U130C | 1.24
149 | A5U U12C A92G U122C | 1.35
150 | U70C A82G A118C | 0.03
151 | C88A A94G A96G U132C | 1.48
152 | A54G A68G G80A | 0.26
153 | A23U A96G A135U | 2.65
154 | U19C A24G A52G U87C U103C A135U | 1.5
155 | U39G A89G A90G U108C | 0.05
156 | A24G A67G G75A A89G A96G U122C U132C | 0.04
157 | A82G G104A A110U A129G | 0
158 | A82G A117G A129U | 0.14
159 | A92G A116C A118G | 0.13
160 | A54U G65A A94U | 2.31
161 | A23G U39A A63U A90G A95G | 1.2
162 | U43C A89G A94G A116G | 0.52
163 | A22G U43C A56G A68G A125G | 0.32
164 | A30G A59G U70C | 0.64
165 | A22G U38C A62U A82U A118G | 0.11
166 | A67G A89C U100C | 1.83
167 | U19C U43C A66G A96U | 1.89
